The supplement of paper PMC8728848
The other results are listed elsewhere or left out.

Tests used:
Test in all cases: glycan array binding signal (z-score within array); higher = stronger binding
Conditions in all cases: glycan notation: IUPAC condensed, linker removed
[1] = target: GlcNAc(b1-2)Gal(b1-3)GalNAc
Outline: (§1)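 Arrays were curated from the Consortium for Functional Glycomics database, 3228 in total, and kept only where the protein sequence was available. Binding is expressed as a within-array Z-score. This score was averaged across arrays of the same protein sequence at different concentrations or buffers and across linkers, and negative values can be read as non-binding.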

[2] = target: GlcNAc(b1-2)Man(a1-3)[GlcNAc(b1-2)Man(a1-6)]Man(b1-4)GlcNAc(b1-4)GlcNAc
Outline: as §1

[3] = target: GlcNAc(b1-2)Man(a1-3)[GlcNAc(b1-2)Man(a1-6)]Man(b1-4)GlcNAc(b1-4)[Fuc(a1-6)]GlcNAc
Outline: as §1

[4] = target: GlcNAc(b1-2)Man(a1-3)[GlcNAc(b1-4)][GlcNAc(b1-2)Man(a1-6)]Man(b1-4)GlcNAc(b1-4)GlcNAc
Outline: as §1

[5] = target: GlcNAc(b1-2)Man(a1-3)[GlcNAc(b1-4)][GlcNAc(b1-2)Man(a1-6)]Man(b1-4)GlcNAc(b1-4)[Fuc(a1-6)]GlcNAc
Outline: as §1

[6] = target: GlcNAc(b1-2)[GlcNAc(b1-4)]Man(a1-3)[GlcNAc(b1-2)Man(a1-6)]Man(b1-4)GlcNAc(b1-4)GlcNAc
Outline: as §1

[7] = target: GlcNAc(b1-2)[GlcNAc(b1-4)]Man(a1-3)[GlcNAc(b1-4)][GlcNAc(b1-2)Man(a1-6)]Man(b1-4)GlcNAc(b1-4)GlcNAc
Outline: as §1

[8] = target: GlcNAc(b1-2)[GlcNAc(b1-4)]Man(a1-3)[GlcNAc(b1-4)][GlcNAc(b1-2)[GlcNAc(b1-6)]Man(a1-6)]Man(b1-4)GlcNAc(b1-4)GlcNAc
Outline: as §1

[9] = target: GlcNAc(b1-2)[GlcNAc(b1-4)]Man(a1-3)[GlcNAc(b1-4)][GlcNAc(b1-2)[GlcNAc(b1-6)]Man(a1-6)]Man(b1-4)GlcNAc(b1-4)[Fuc(a1-6)]GlcNAc
Outline: as §1

[10] = target: GlcNAc(b1-2)[GlcNAc(b1-6)]Man(a1-6)[GlcNAc(b1-2)Man(a1-3)]Man(b1-4)GlcNAc(b1-4)GlcNAc
Outline: as §1

[11] = target: GlcNAc(b1-2)[GlcNAc(b1-6)]Man(a1-6)[GlcNAc(b1-2)Man(a1-3)]Man(b1-4)GlcNAc(b1-4)[Fuc(a1-6)]GlcNAc
Outline: as §1

[12] = target: GlcNAc(b1-2)[GlcNAc(b1-6)]Man(a1-6)[GlcNAc(b1-4)][GlcNAc(b1-2)Man(a1-3)]Man(b1-4)GlcNAc(b1-4)GlcNAc
Outline: as §1

[13] = target: GlcNAc(b1-3)Fuc
Outline: as §1

[14] = target: GlcNAc(b1-3)Gal
Outline: as §1

[15] = target: GlcNAc(b1-3)Gal(b1-3)GalNAc
Outline: as §1

[16] = target: GlcNAc(b1-3)Gal(b1-4)Glc
Outline: as §1

[17] = target: GlcNAc(b1-3)Gal(b1-4)GlcNAc
Outline: as §1

[18] = target: GlcNAc(b1-3)Gal(b1-4)GlcNAc(b1-2)Man(a1-3)[GlcNAc(b1-3)Gal(b1-4)GlcNAc(b1-2)Man(a1-6)]Man(b1-4)GlcNAc(b1-4)GlcNAc
Outline: as §1

[19] = target: GlcNAc(b1-3)Gal(b1-4)GlcNAc(b1-2)Man(a1-3)[GlcNAc(b1-3)Gal(b1-4)GlcNAc(b1-2)Man(a1-6)]Man(b1-4)GlcNAc(b1-4)[Fuc(a1-6)]GlcNAc
Outline: as §1

[20] = target: GlcNAc(b1-3)Gal(b1-4)GlcNAc(b1-2)[GlcNAc(b1-3)Gal(b1-4)GlcNAc(b1-6)]Man(a1-6)[GlcNAc(b1-3)Gal(b1-4)GlcNAc(b1-2)Man(a1-3)]Man(b1-4)GlcNAc(b1-4)GlcNAc
Outline: as §1

[21] = target: GlcNAc(b1-3)Gal(b1-4)GlcNAc(b1-3)Gal(b1-4)GlcNAc
Outline: as §1

[22] = target: GlcNAc(b1-3)Gal(b1-4)GlcNAc(b1-3)Gal(b1-4)GlcNAc(b1-2)Man(a1-3)[GlcNAc(b1-3)Gal(b1-4)GlcNAc(b1-3)Gal(b1-4)GlcNAc(b1-2)Man(a1-6)]Man(b1-4)GlcNAc(b1-4)GlcNAc
Outline: as §1

[23] = target: GlcNAc(b1-3)Gal(b1-4)GlcNAc(b1-3)Gal(b1-4)GlcNAc(b1-2)Man(a1-3)[GlcNAc(b1-3)Gal(b1-4)GlcNAc(b1-3)Gal(b1-4)GlcNAc(b1-2)Man(a1-6)]Man(b1-4)GlcNAc(b1-4)[Fuc(a1-6)]GlcNAc
Outline: as §1

[24] = target: GlcNAc(b1-3)Gal(b1-4)GlcNAc(b1-3)Gal(b1-4)GlcNAc(b1-2)[GlcNAc(b1-3)Gal(b1-4)GlcNAc(b1-3)Gal(b1-4)GlcNAc(b1-6)]Man(a1-6)[GlcNAc(b1-3)Gal(b1-4)GlcNAc(b1-3)Gal(b1-4)GlcNAc(b1-2)Man(a1-3)]Man(b1-4)GlcNAc(b1-4)[Fuc(a1-6)]GlcNAc
Outline: as §1

[25] = target: GlcNAc(b1-3)Gal(b1-4)GlcNAc(b1-3)Gal(b1-4)GlcNAc(b1-3)Gal(b1-4)GlcNAc(b1-2)Man(a1-3)[GlcNAc(b1-3)Gal(b1-4)GlcNAc(b1-3)Gal(b1-4)GlcNAc(b1-3)Gal(b1-4)GlcNAc(b1-2)Man(a1-6)]Man(b1-4)GlcNAc(b1-4)GlcNAc
Outline: as §1

[26] = target: GlcNAc(b1-3)Gal(b1-4)GlcNAc(b1-3)Gal(b1-4)GlcNAc(b1-3)Gal(b1-4)GlcNAc(b1-2)Man(a1-3)[GlcNAc(b1-3)Gal(b1-4)GlcNAc(b1-3)Gal(b1-4)GlcNAc(b1-3)Gal(b1-4)GlcNAc(b1-2)Man(a1-6)]Man(b1-4)GlcNAc(b1-4)[Fuc(a1-6)]GlcNAc
Outline: as §1

[27] = target: GlcNAc(b1-3)Gal(b1-4)GlcNAc(b1-3)Gal(b1-4)GlcNAc(b1-3)Gal(b1-4)GlcNAc(b1-2)[GlcNAc(b1-3)Gal(b1-4)GlcNAc(b1-3)Gal(b1-4)GlcNAc(b1-3)Gal(b1-4)GlcNAc(b1-6)]Man(a1-6)[GlcNAc(b1-3)Gal(b1-4)GlcNAc(b1-3)Gal(b1-4)GlcNAc(b1-3)Gal(b1-4)GlcNAc(b1-2)Man(a1-3)]Man(b1-4)GlcNAc(b1-4)[Fuc(a1-6)]GlcNAc
Outline: as §1

[28] = target: GlcNAc(b1-3)Gal(b1-4)GlcNAc(b1-3)Gal(b1-4)GlcNAc(b1-3)Gal(b1-4)GlcNAc(b1-3)Gal(b1-4)GlcNAc(b1-2)Man(a1-3)[GlcNAc(b1-3)Gal(b1-4)GlcNAc(b1-3)Gal(b1-4)GlcNAc(b1-3)Gal(b1-4)GlcNAc(b1-3)Gal(b1-4)GlcNAc(b1-2)Man(a1-6)]Man(b1-4)GlcNAc(b1-4)GlcNAc
Outline: as §1

[29] = target: GlcNAc(b1-3)Gal(b1-4)GlcNAc(b1-3)Gal(b1-4)GlcNAc(b1-3)Gal(b1-4)GlcNAc(b1-3)Gal(b1-4)GlcNAc(b1-2)Man(a1-3)[GlcNAc(b1-3)Gal(b1-4)GlcNAc(b1-3)Gal(b1-4)GlcNAc(b1-3)Gal(b1-4)GlcNAc(b1-3)Gal(b1-4)GlcNAc(b1-2)Man(a1-6)]Man(b1-4)GlcNAc(b1-4)[Fuc(a1-6)]GlcNAc
Outline: as §1

[30] = target: GlcNAc(b1-3)Gal(b1-4)GlcNAc(b1-3)Gal(b1-4)GlcNAc(b1-3)Gal(b1-4)GlcNAc(b1-3)Gal(b1-4)GlcNAc(b1-2)[GlcNAc(b1-3)Gal(b1-4)GlcNAc(b1-3)Gal(b1-4)GlcNAc(b1-3)Gal(b1-4)GlcNAc(b1-3)Gal(b1-4)GlcNAc(b1-6)]Man(a1-6)[GlcNAc(b1-3)Gal(b1-4)GlcNAc(b1-3)Gal(b1-4)GlcNAc(b1-3)Gal(b1-4)GlcNAc(b1-3)Gal(b1-4)GlcNAc(b1-2)Man(a1-3)]Man(b1-4)GlcNAc(b1-4)[Fuc(a1-6)]GlcNAc
Outline: as §1

[31] = target: GlcNAc(b1-3)Gal(b1-4)GlcNAc(b1-3)Gal(b1-4)GlcNAc(b1-3)GalNAc
Outline: as §1

[32] = target: GlcNAc(b1-3)Gal(b1-4)GlcNAc(b1-3)GalNAc
Outline: as §1

[33] = target: GlcNAc(b1-3)Gal(b1-4)GlcNAc(b1-3)[GlcNAc(b1-3)Gal(b1-4)GlcNAc(b1-3)]GalNAc
Outline: as §1

[34] = target: GlcNAc(b1-3)Gal(b1-4)GlcNAc(b1-6)[Gal(b1-3)]GalNAc
Outline: as §1

[35] = target: GlcNAc(b1-3)Gal(b1-4)GlcNAc(b1-6)[GlcNAc(b1-3)Gal(b1-3)]GalNAc
Outline: as §1

[36] = target: GlcNAc(b1-3)Gal(b1-4)GlcNAc(b1-6)[GlcNAc(b1-3)]Gal(b1-4)GlcNAc
Outline: as §1

[37] = target: GlcNAc(b1-3)GalNAc
Outline: as §1

B1: OGAA (protein)
chain: MVQKESQATLEERESELSSNPAASAGASLEPPAAPAPGEDNPAGAGGAAVAGAAGGARRFLCGVVEGFYGRPWVMEQRKELFRRLQKWELNTYLYAPKDDYKHRMFWREMYSVEEAEQLMTLISAAREYEIEFIYAISPGLDITFSNPKEVSTLKRKLDQVSQFGCRSFALLFADIDHNMCAADKEVFSSFAHAQVSITNEIYQYLGEPETFLFCPTEYCGTFCYPNVSQSPYLRTVGEKLLPGIEVLWTGPKVVSKEIPVESIEEVSKIIKRAPVIWDNIHANDYDQKRLFLGPYKGRSTELIPRLKGVLTNPNCEFEANYVAIHTLATWYKSNMNGVRKDVVMTDSEDSTVSIQIKLENEGSDEDIETDVLYSPQMALKLALTEWLQEFGVPHQY
glycan array binding signal (z-score) [1]: -0.094 | glycan array binding signal (z-score) [2]: -0.07 | glycan array binding signal (z-score) [3]: -0.042 | glycan array binding signal (z-score) [4]: -0.118 | glycan array binding signal (z-score) [5]: -0.068 | glycan array binding signal (z-score) [6]: 0.02 | glycan array binding signal (z-score) [7]: -0.083 | glycan array binding signal (z-score) [8]: -0.071 | glycan array binding signal (z-score) [9]: -0.11 | glycan array binding signal (z-score) [10]: -0.086 | glycan array binding signal (z-score) [11]: -0.017 | glycan array binding signal (z-score) [12]: -0.141 | glycan array binding signal (z-score) [13]: -0.112 | glycan array binding signal (z-score) [14]: -0.049 | glycan array binding signal (z-score) [15]: -0.053 | glycan array binding signal (z-score) [16]: -0.091 | glycan array binding signal (z-score) [17]: -0.079 | glycan array binding signal (z-score) [18]: -0.092 | glycan array binding signal (z-score) [19]: -0.029 | glycan array binding signal (z-score) [20]: 0.013 | glycan array binding signal (z-score) [21]: -0.034 | glycan array binding signal (z-score) [22]: -0.009 | glycan array binding signal (z-score) [23]: -0.083 | glycan array binding signal (z-score) [24]: 0.011 | glycan array binding signal (z-score) [25]: -0.1 | glycan array binding signal (z-score) [26]: -0.055 | glycan array binding signal (z-score) [27]: -0.048 | glycan array binding signal (z-score) [28]: -0.021 | glycan array binding signal (z-score) [29]: -0.105 | glycan array binding signal (z-score) [30]: -0.029 | glycan array binding signal (z-score) [31]: -0.06 | glycan array binding signal (z-score) [32]: -0.053 | glycan array binding signal (z-score) [33]: 0.062 | glycan array binding signal (z-score) [34]: -0.119 | glycan array binding signal (z-score) [35]: -0.118 | glycan array binding signal (z-score) [36]: -0.093 | glycan array binding signal (z-score) [37]: -0.038
